Experimental data as given in PubChem BioAssay AID651820 (National Center for Advancing Translational Sciences (NCATS), 2012).
About 12,000 (3.5%) of roughly 340,000 compounds were called active. The shares of active, inactive and inconclusive entries below differ from those in the screen. Calls come from the whole dose curve; as a rule, active = well fitted inhibition curve with a large enough effect; inconclusive = small, poorly fitted or top-dose-only effect, or another doubt; inactive = no such curve, though single readings can be large or run the other way. No potency is given beside an inconclusive call; the fits are too rough.

experiment: qHTS Assay for Inhibitors of Hepatitis C Virus (HCV); settings: Huh7.5.1 HCVcc-Cre (HCVcc is cell-culture hepatitis C virus) infection, luciferase reporter, 44 h; activity change, negative = inhibition: at 41.8 µM (top of the series)
How it was run: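 Cells (1,000/well) were plated 4 h before compound, then infected with HCVcc-Cre virus (~0.5 moi). After 44 h further culture, infection was read as luciferase luminescence following a 15 min substrate incubation at room temperature.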
% is set by controls: 0 for no effect and ±100 for the full control effect; potency is the fitted concentration of half-maximal effect; tags give direction and shape of the fitted curve.

| SMILES | Potency | activity change, negative = inhibition |
| --- | --- | --- |
| CCC(Sc1nc2ccsc2c(=O)n1-c1ccc(Cl)c(C)c1)C(=O)NCc1ccco1 (centres undefined) | inconclusive [inhibitor, partial curve, poor fit] | – |
| CCCn1c2ccccc2c2cnn(CC(=O)N3CCOCC3)c(=O)c21 | – | inactive: 12.7% |
| O=C(COc1ccccc1-c1ccccc1)NN=C1CCCC1 | – | inactive: -15.7% |
| O=C(O)c1ccccc1C(c1ccccc1)c1ccccc1O (centres undefined) | – | inactive: -11.9% |
| C=CCN(c1ccccc1OC)S(=O)(=O)c1cccc(C(=O)NC2=NCCS2)c1 | inconclusive [inhibitor, single point] | – |
| CCN(CC)C(=O)[C@H]1C[C@H](CC(=O)NCc2cccc(C(F)(F)F)c2)C(=O)N2CCc3c([nH]c4cc(CCC(=O)N(C)C)ccc34)[C@]12C | – | inactive: 0.435% |
| CCC1(C)Cc2c(sc3nc(SC)[nH]c(=O)c23)CO1 (centres undefined) | inconclusive [inhibitor, single point] | – |
| COc1ccc(N(CC(=O)Nc2ccc(C(C)C)cc2)S(=O)(=O)c2c(C)noc2C)cc1 | – | inactive: 9.8% |
| CCOC(=O)CSc1nc2ccccc2c(=O)n1CC1CCCC1 | inconclusive [inhibitor, single point] | – |
| CN(C(=O)c1cccc(NC(=O)Cc2ccc(NC(=O)C3CCCN(C(=O)CCc4ccccc4)C3)cc2)c1)C1CCCC1 (centres undefined) | inconclusive [inhibitor, single point] | – |
| COc1ccccc1NC(=O)C1CCCN(S(=O)(=O)c2cnc[nH]2)C1 (centres undefined) | – | inactive: -18% |
| N#Cc1c(-c2ccncc2)cc(-c2ccc(F)cc2)nc1N | inconclusive [inhibitor, single point] | – |
| CC1CCCCC1Nc1nc2ccc(Cl)cc2n2cnnc12 (centres undefined) | – | inactive: -0.104% |
| CC(C)Sc1cc(N2CCCC2)nc(-c2ccccc2Cl)n1 | inconclusive [inhibitor, partial curve] | – |
| CC(C)(C)OC(=O)N1CCC(c2c(C(=O)NCC3CCN(C4CCCC4)C3)cnn2-c2ccccc2Cl)CC1 (centres undefined) | – | inactive: -16.9% |
| Cn1c(SCC(=O)N(C2CCCCC2)C2CCCCC2)nnc1-c1cccs1 | – | inactive: 11% |
| CCn1c2ccc(F)cc2c2nc3ccccc3nc21 | inconclusive [inhibitor, full curve] | – |
| CN(CCNC(=O)C1CCN(c2ncnc3c2nc2n3CCCCC2)CC1)Cc1ccccc1 | inconclusive [inhibitor, single point] | – |
| COc1ccc(N2CCN(C(=O)c3cc4c(C)nc5ccccc5c4o3)CC2)cc1 | inconclusive [inhibitor, partial curve] | – |
| COC(=O)C1=C(c2ccc3ccccc3c2)C[C@@H]2CC[C@H]1N2C(=O)N1CCCC1 | active: 10 µM | – |
| CCN1C(=O)C(=O)N(CC(=O)c2[nH]c(C)c(C(C)=O)c2C)C1=O | – | inconclusive: -75.4% [inhibitor] |
| CC1=CC(C)(C)NC(=S)N1C(C)c1ccccc1 (centres undefined) | inconclusive [inhibitor, single point] | – |
| O=C(N/N=C/c1ccccc1[N+](=O)[O-])c1ccc2c(c1)OCCO2 | inconclusive [inhibitor, single point] | – |

| SMILES | Potency | activity change, negative = inhibition |
| --- | --- | --- |
| CC1CCCC(NC(=O)COC(=O)c2cc(=O)[nH]c3ccccc23)C1C (centres undefined) | – | inactive: 16.3% |
| O=C(CCc1ccccc1)NC(=S)Nc1ccccc1Br | inconclusive [inhibitor, single point] | – |
| CCCCn1c(=NC(=O)c2cccnc2)c(C#N)cc2c(=O)n3cccc(C)c3nc21 | inconclusive [inhibitor, full curve, poor fit] | – |
| COc1ccc(-n2cnc3scc(-c4ccccc4)c3c2=O)cc1 | inconclusive [inhibitor, single point] | – |
| O=C(COc1ccc(Cl)cc1)N1N=C(c2cccs2)CC1c1ccco1 (centres undefined) | inconclusive [inhibitor, single point] | – |
| Cc1ccc(-c2nc(-c3ccccn3)no2)cc1[N+](=O)[O-] | inconclusive [inhibitor, partial curve] | – |
| COc1ccc(NC(=O)Nc2cccc3c2O[C@H](CN(C)S(=O)(=O)c2ccccc2)[C@@H](C)CN([C@H](C)CO)C3=O)cc1 | inconclusive [inhibitor, partial curve] | – |
| CCOc1ccc(-n2c(SCC(=O)Nc3cc(C)on3)nc3c([nH]c4ccccc43)c2=O)cc1 | active: 22.4 µM | – |
| COc1ccc(C(CNc2ccc(S(=O)(=O)N3CCN(C)CC3)cc2[N+](=O)[O-])N(C)C)cc1 (centres undefined) | active: 10 µM | – |
| CCc1cc(C(=O)NNC(=O)c2csc(N3CCOCC3)n2)sc1C | inconclusive [inhibitor, single point] | – |
| Cc1cccc(-c2oc3ccccc3c2-c2ccc3c(c2)OCO3)c1 | – | inactive: -25.3% |
| CCC(=O)N=c1sc2c(C)cc(C)cc2n1CC(=O)OC | inconclusive [inhibitor, partial curve] | – |
| CCOc1ccc(N2C(=O)CSC2c2ccncc2)cc1 (centres undefined) | inconclusive [inhibitor, single point] | – |
| COc1ccc(CC(=O)Nc2nc(-c3cccnc3)cs2)cc1 | – | inactive: -27.5% |
| CCOC(=O)N1CCc2c(sc(NC(=O)CCS(=O)(=O)c3ccccc3)c2C(N)=O)C1 | inconclusive [inhibitor, partial curve, poor fit] | – |
| CCOc1ccc(C(=O)Nc2ccc(CN3CCOCC3)cc2)cc1Br | inconclusive [inhibitor, single point] | – |
| N#CC(=C1CCCC1)c1nc(-c2ccc(Cl)cc2)cs1 | inconclusive [inhibitor, single point] | – |
| C(=N\Nc1nc2ccccc2[nH]1)/c1cccc2cccnc12 | active: 3.98 µM | – |
| CCNc1nc(C)c2cc(Br)c(=O)n(CC)c2n1 | active: 8.91 µM | – |
| Cn1c(=O)c([N+](=O)[O-])c(N2CCSCC2)c2ccccc21 | inconclusive [inhibitor, partial curve] | – |
| Cc1ccc2[nH]c(=O)c(C(c3nnnn3C(C)(C)C)N3CCN(C(=O)c4ccco4)CC3)cc2c1 (centres undefined) | inconclusive [inhibitor, full curve, poor fit] | – |
| COCCNc1nc(-c2ccc(OC)cc2)c(-c2ccc(OC)cc2)s1 | inconclusive [inhibitor, single point] | – |
| COc1ccc(S(=O)(=O)N2CCOC23CCN(S(=O)(=O)c2ccc(Cl)cc2)CC3)cc1 | inconclusive [inhibitor, single point] | – |

| SMILES | Potency | activity change, negative = inhibition |
| --- | --- | --- |
| Cc1cc(C)n(-c2ccc3cccc(NS(C)(=O)=O)c3n2)n1 | inconclusive [inhibitor, partial curve] | – |
| Cc1ccc(NCC(=O)N/N=C/c2cc3ccccc3nc2Cl)cc1 | – | inactive: -15.5% |
| COC(CNC(=O)CCc1c(C)nc2c(-c3ccc(F)cc3)c(C)nn2c1C)OC | inconclusive [inhibitor, single point] | – |
| Cc1ccc(F)cc1NC(=O)c1sc2ncn(CC(=O)N3CCN(c4ccccn4)CC3)c(=O)c2c1C | – | inactive: 14.7% |
| O=C(NCc1ccc2c(c1)OCO2)c1ccccn1 | – | inactive: 18.1% |
| CCOc1ccc(NC(=O)NCCN2CCN(c3cccc(C)c3C)CC2)cc1 | inconclusive [inhibitor, partial curve] | – |
| Cc1ccc(NC(=O)C(=O)NCCCN2CCOCC2)c(C)c1 | – | inactive: 9.04% |
| CCCOc1ccc([N+](=O)[O-])cc1C1NC(=S)NC(c2ccccc2)=C1C(=O)OCC (centres undefined) | inconclusive [inhibitor, single point] | – |
| Cc1cccc(C(=O)NC(C(=O)Nc2nc(-c3ccccn3)cs2)C(C)C)c1 (centres undefined) | inconclusive [inhibitor, single point] | – |
| Cc1cccc(N/N=C(\C#N)S(=O)(=O)C(C)(C)C)c1 | – | inactive: 16.9% |
| Cc1ccc(C2Cc3cc(O)c(O)cc3CN2)cc1 (centres undefined) | inconclusive [inhibitor, single point] | – |
| CN(C)S(=O)(=O)c1ccc(Cl)c(NC(=O)CNC2(C)CCS(=O)(=O)C2)c1 (centres undefined) | – | inactive: -1.45% |
| CC(C)Cc1nnc(NC(=O)CCC(=O)NC2CC2)s1 | – | inactive: 13.8% |
| CCN(CC)S(=O)(=O)c1cccc(C(=O)OCC(=O)Nc2ccc3c(c2)c2ccccc2n3CC)c1 | inconclusive [inhibitor, single point] | – |
| Cc1ccc(C)c(SCC(=O)Nc2ccc(C)c(S(=O)(=O)N3CCOCC3)c2)c1 | inconclusive [inhibitor, single point] | – |
| Cn1cnc([N+](=O)[O-])c1Cl | inconclusive [inhibitor, single point] | – |
| Cc1ccc(CNCC(O)(c2ccccc2)c2ccc(Cl)cc2)cc1 (centres undefined) | inconclusive [inhibitor, single point] | – |
| CCOC(=O)c1ccccc1NC(=O)CC1SC(=NC)N(C)C1=O (centres undefined) | inconclusive [inhibitor, full curve] | – |
| CCC(=O)c1ccc(OCC(=O)N2CCN(C(=O)c3ccccc3)CC2)cc1 | inconclusive [inhibitor, single point] | – |
| Cc1ccc(C(=O)N=c2sccn2C)cc1S(=O)(=O)N1CCOCC1 | – | inactive: -14.7% |
| N#CCSc1nc2ccc(N3CCOCC3)cc2c(=O)n1CCc1ccccc1 | active: 10 µM | – |
| C=CCn1c(=O)/c(=C/c2ccc(F)cc2)s/c1=C(\C#N)c1nnc2n1CCCCC2 | inconclusive [inhibitor, single point] | – |
| COc1nnc(-c2ccc(N3CCOCC3)c(NC(=O)C3CCCCC3)c2)c2ccccc12 | inconclusive [inhibitor, single point] | – |
